From PubChem BioAssay (NCI)
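Interpolation was linear, between the two tested concentrations surrounding the appropriate level; five concentrations were tested over 48 hours in 96-well plates. GI50 marks 50% less growth. TGI is the concentration that stops growth completely.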 Peptide text beside a SMILES is read from it. * marks the point of attachment. Cbz = O=C(OCc1ccccc1)*

What follows are molecules tested on NCI-H322M lung (assay: growth of human tumour cells (NCI), 48 h).

`Cc1cc2c(=O)[nH]c(N)nc2nc1C` and `Cc1cc(C)c2c(=O)cc(-c3ccc4ccccc4c3)[nH]c2n1` cannot be ordered by TGI: greater than 100 µM for the first, greater than 100 µM for the second.

Compared with `Brc1ccc(C2SCc3nc4ccccc4n32)cc1` (stereo not given), `O=C1CSC(C(N=Nc2ccc(Cl)cc2)c2nc3ccccc3[nH]2)=N1` (stereo not given) is higher in TGI: 54.2 µM for the first, greater than 100 µM for the second.

`Cc1cc(=O)c2ccccc2n1CCCCCCCCCCn1c(C)cc(=O)c2ccccc21` and `CC(=O)C1=C(C)N(c2ccccc2)C2(O)C=CC(=O)C3=C(O)c4ccccc4C(=O)C312` (stereo not given) are within 1.5-fold of each other in TGI: 28.7 µM for the first, 36.7 µM for the second.

`CC(=O)OC(=C(C#N)C#N)c1nccnc1C(C)=O` and `CC(=O)OC1[C@@H](OC(C)=O)CN(OCc2ccccc2)C[C@H]1OC(C)=O` (stereo not given in full) cannot be ordered by TGI: greater than 20 µM for the first, greater than 100 µM for the second.

Going from `CC(C)(O)CCc1ccc(O)c2c(=O)c3c(O)c4c(cc3oc12)O[C@H]1OC=C[C@@]41O` to `CCn1c(=O)c2c3cc(OC(C)=O)ccc3oc2c2ccc(OC(C)=O)cc21`, the TGI rises from 0.125 µM to greater than 100 µM.

Compared with `O=C(Sc1sc(=S)sc1SC(=O)c1ccccc1)c1ccccc1`, `O=[p+]1c2ccccc2[nH]c2ccccc21` is higher in TGI: 45.8 µM for the first, greater than 100 µM for the second.

First: CC/C=C\C[C@H](O)C/C=C1/C(=O)C=C[C@@H]1C/C=C\CCCC(=O)NC
Second: NC(=O)CNC(=O)[C@@H]1C[C@@H](OCCC(=O)O)CN1C(=O)OCc1ccccc1
The TGI of the first is lower: 11.1 µM for the first, greater than 100 µM for the second.

`CC(=O)OC1OC(c2ccoc2)C[C@@]12C1CCC3O[C@]3(C)[C@]1(C)C[C@H](OC(C)=O)[C@H]2C` (stereo not given in full) and `CC1CC(C(=O)OC2OC(COC3OC(CO)C(OC4OC(C)C(O)C(O)C4O)C(O)C3O)C(O)C(O)C2O)C2CCC3(C)C(=CCC4(C)C3CCC3C(C)(CO)C(O)C(O)CC34C)C2C1C` (stereo not given) cannot be ordered by TGI: greater than 75 µM for the first, greater than 100 µM for the second.

First: CNc1nc2c(C)ccc3[nH]c(N(C)C)nc3c-2n1
Second: Cn1c2ccccc2c2nnc(NNCc3ccccn3)nc21
The TGI of the first is higher: greater than 100 µM for the first, 12.5 µM for the second.

`CC(=O)c1cccc(NC(=O)c2ccc(NC3=C(Cl)C(=O)N(Cc4ccccc4)C3=O)cc2)c1` and `C/C(=C1\C(=O)C(c2ccccc2)N(c2ccccc2)C1=O)c1ccc(Cl)cc1` (stereo not given) are within 1.5-fold of each other in TGI: 39.4 µM for the first, 36 µM for the second.

First: Cc1cnc(SCCN2CCN(C)CC2)nc1-c1cc2ccccc2s1
Second: CCCCN1CCN(c2ccc3nc(-c4ccc5nc(-c6ccc(OCC)c(OCC)c6)[nH]c5c4)[nH]c3c2)CC1
The TGI of the first is 12-fold higher: 31.9 µM for the first, 2.67 µM for the second.

`Nc1[nH]c(=S)c2c(N)n[nH]c2c1C(=O)Nc1ccc(Cl)cc1` and `COc1cc(C(=O)OCCn2[nH]c(-c3ccc(Cl)cc3)nc2=S)cc(OC)c1OC` cannot be ordered by TGI: greater than 100 µM for the first, greater than 100 µM for the second.

First: COc1ccc(Oc2cc(NCCC(F)(F)F)c3ncc(-c4ccc(C(=O)NC5CC5)c(C)c4)n3n2)c(F)c1F
Second: CCN(CC)CCNC(=O)c1nn(-c2ccc(Cl)cc2)c2c1CCc1cc(OC)ccc1-2
The TGI of the first is higher: greater than 100 µM for the first, 21.7 µM for the second.

`CCCCN1C(=O)CS/C1=N/Nc1nc2c([nH]1)c(=O)n(C)c(=O)n2C` and `CN1C(=O)C(=CN(C)c2ccccc2)C(=O)N(C)C1=O` cannot be ordered by TGI: greater than 100 µM for the first, greater than 100 µM for the second.

`CN=C(NC)N(C)c1nc(=[N+](C)C)ss1` and `CCOC(=O)c1nc2cc(C(F)(F)F)ccc2[n+]([O-])c1C` cannot be ordered by TGI: greater than 100 µM for the first, greater than 100 µM for the second.

Going from `CCN(CC)c1ccc(/C=C/C=C(/C#N)C(N)=S)cc1` to `N=C(N)SCc1ccc(N=C=S)cc1`, the TGI falls from greater than 100 µM to 29.6 µM.

Compared with `C=CCn1c(-c2ccc(Cl)cc2Cl)csc1=Nc1c(C)n(C)n(-c2ccccc2)c1=O`, `Oc1c(CNCCNCc2cc(Cl)cc(Cc3ccccc3)c2O)cc(Cl)cc1Cc1ccccc1` is 2-fold higher in TGI: 28 µM for the first, 56.7 µM for the second.

Going from `NC(=S)N/N=C1\CCCCC1C(O)(C(F)(F)Cl)C(F)(F)Cl` (stereo not given) to `CN1CCN(c2ccc(C(=O)Nc3cccc(C#Cc4cccc5[nH]nc(N)c45)c3)cc2C(F)(F)F)CC1`, the TGI falls from greater than 10 µM to 4.23 µM.

Going from `CCCCc1c2c(nc3c1CC/C(=C\c1ccc([N+](=O)[O-])cc1)C3=O)CCCC2` to `C[C@]12CCc3sc(-c4cccc(F)c4)nc3C1=CC[C@@H]1[C@@H]2CC[C@]2(C)C(=O)CC[C@@H]12`, the TGI rises from 8.83 µM to greater than 100 µM.

`CCCC#CCOC(=O)c1cc([N+](=O)[O-])cc([N+](=O)[O-])c1` and `COc1cc2ccc(CC(N)=O)cc2cc1OC` cannot be ordered by TGI: greater than 100 µM for the first, greater than 100 µM for the second.

`CCOC(=O)CNC(=O)C(C)NC(=O)C(NC(=O)OCc1ccccc1)C(C)C` (stereo not drawn) (Cbz-Val-Ala-Gly-OEt; configuration not given here) and `C[N+](C)(C)C(C1=CCCC1=O)c1ccccc1` (stereo not given) cannot be ordered by TGI: greater than 100 µM for the first, greater than 100 µM for the second.

Going from `Nc1nc(-c2cc(-c3cccc4ccccc34)nc(N)n2)cc(-c2cccc3ccccc23)n1` to `O=C1c2c(c3c4ccccc4[nH]c3c3[nH]c4ccccc4c23)C(=O)N1Cc1ccccc1`, the TGI falls from greater than 100 µM to 12.7 µM.

`Clc1ccc(N2CCC(N3CCCC3)CC2)cc1-c1nc2ccccc2[nH]1` and `O=S(=O)(/N=C(\NO)Nc1ccc(Cl)cc1)C1CC=C(c2ccon2)S1` (stereo not given) cannot be ordered by TGI: greater than 100 µM for the first, greater than 100 µM for the second.

`COc1cc(C2C3=C(COC3=O)Nc3cc4c(cc32)OCO4)cc2c1OCO2` (stereo not given) and `Cc1cc2c(C(C)C)c(O)c(O)c(C=Nc3ccccc3)c2c(O)c1-c1c(C)cc2c(C(C)C)c(O)c(O)c(C=Nc3ccccc3)c2c1O` cannot be ordered by TGI: greater than 100 µM for the first, greater than 100 µM for the second.

Going from `CC/C=C\C[C@H](O)C/C=C1/C(=O)C=C[C@@H]1C/C=C\CCCC(=O)NC` to `CCN(CC)c1ccc(/C=C/C=C(/C#N)C(N)=S)cc1`, the GI50 rises from 2.39 µM to 43 µM (18-fold).

Going from `CC(=O)c1cccc(NC(=O)c2ccc(NC3=C(Cl)C(=O)N(Cc4ccccc4)C3=O)cc2)c1` to `CN1CCN(c2ccc(C(=O)Nc3cccc(C#Cc4cccc5[nH]nc(N)c45)c3)cc2C(F)(F)F)CC1`, the GI50 falls from 17.9 µM to 1.19 µM (15-fold).

Going from `COc1ccc(Oc2cc(NCCC(F)(F)F)c3ncc(-c4ccc(C(=O)NC5CC5)c(C)c4)n3n2)c(F)c1F` to `CCCCN1CCN(c2ccc3nc(-c4ccc5nc(-c6ccc(OCC)c(OCC)c6)[nH]c5c4)[nH]c3c2)CC1`, the GI50 rises from 0.61 µM to 1.27 µM (2.1-fold).

Going from `Cn1c2ccccc2c2nnc(NNCc3ccccn3)nc21` to `Oc1c(CNCCNCc2cc(Cl)cc(Cc3ccccc3)c2O)cc(Cl)cc1Cc1ccccc1`, the GI50 falls from 0.404 µM to 0.167 µM (2.4-fold).

Compared with `Clc1ccc(N2CCC(N3CCCC3)CC2)cc1-c1nc2ccccc2[nH]1`, `C[C@]12CCc3sc(-c4cccc(F)c4)nc3C1=CC[C@@H]1[C@@H]2CC[C@]2(C)C(=O)CC[C@@H]12` is 11-fold lower in GI50: 33.5 µM for the first, 3.06 µM for the second.

Going from `COc1cc(C2C3=C(COC3=O)Nc3cc4c(cc32)OCO4)cc2c1OCO2` (stereo not given) to `CCOC(=O)c1nc2cc(C(F)(F)F)ccc2[n+]([O-])c1C`, the GI50 rises from 0.233 µM to greater than 100 µM.
